The full ranking holds about 33,000 sequences; the median of “E-score (-0.5 to 0.5)” is about -0.012, and the highest 2% start at about 0.27. The list shows a part of the results.
What follows are sequences tested against T1, Vhr1 (UniProt P40522) (assay: PBM E-score (8-mer binding enrichment) (E-score (-0.5 to 0.5)); higher = stronger / more preferred TF binding; most listed sequences are background and not binding sites). Settings: protein concentration: 200 nM; construct: GST-full length.
T1 sequence: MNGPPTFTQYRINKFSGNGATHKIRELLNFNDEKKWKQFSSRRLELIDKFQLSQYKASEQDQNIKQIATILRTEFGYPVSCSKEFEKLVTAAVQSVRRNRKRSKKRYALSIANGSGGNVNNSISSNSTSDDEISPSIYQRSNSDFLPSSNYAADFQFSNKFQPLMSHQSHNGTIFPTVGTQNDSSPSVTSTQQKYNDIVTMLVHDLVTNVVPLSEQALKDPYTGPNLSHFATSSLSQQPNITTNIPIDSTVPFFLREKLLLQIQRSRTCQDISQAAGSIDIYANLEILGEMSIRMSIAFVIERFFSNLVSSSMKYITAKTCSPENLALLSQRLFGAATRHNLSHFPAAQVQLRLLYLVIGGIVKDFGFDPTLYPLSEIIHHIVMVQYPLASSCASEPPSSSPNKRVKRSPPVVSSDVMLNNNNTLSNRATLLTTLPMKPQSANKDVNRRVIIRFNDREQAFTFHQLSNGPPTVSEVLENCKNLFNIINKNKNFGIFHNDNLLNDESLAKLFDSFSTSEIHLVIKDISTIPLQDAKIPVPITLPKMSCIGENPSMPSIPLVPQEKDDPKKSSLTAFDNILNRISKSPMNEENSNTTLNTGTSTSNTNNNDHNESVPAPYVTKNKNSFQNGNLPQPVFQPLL
How it was run: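 For each ungapped eight-base word taken together with its reverse complement, the Universal PBM Analysis Suite assigned an E-score. Binding data came from GST-tagged yeast transcription factors, applied at about 100-200 nM, on universal all-10-mer Agilent arrays made double-stranded by primer extension. Fluorescent anti-GST marked bound protein, and scans were normalised with masliner.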

Sequence | PBM E-score
CATCAAAC | 0.0574
GGGTTGGA | -0.0905
CAGTGGGA | 0.163
AGTAAGAT | 0.00823
AACTCTCA | -0.222
CTCCTGGC | 0.00698
GACTGGAA | -0.13
CCCACAAA | 0.205
CTTACGGA | -0.244
CGGAGAAG | -0.0574
AAATAGTG | -0.149
AGGGCAGA | 0.0882
ACCCTGGA | -0.0995
TCTACCAA | -0.114
ATCGAGCG | -0.0419
CCCTGTCA | -0.0257
GGTTGTTA | 0.163
CGAACCAG | 0.0659
AATGCAAT | -0.256
AATCGGAT | -0.0499
CCAGTCGA | 0.0785
GGGAACGA | 0.051
AGTCTTCG | 0.138
GATCTACA | -0.016
ACAGACCT | 0.113

Sequence | PBM E-score
ACGGTTGA | 0.0296
AGTACCCG | 0.0333
AAAATTCA | -0.128
CAAAGGTC | -0.211
CACTGCGA | -0.086
ACGTGCTA | -0.192
CTTCTCAA | -0.0692
GTAATGAC | 0.0749
GTTTTACA | -0.0714
CTCTATTC | -0.146
ATCCACGC | -0.162
GCATCGGC | 0.0389
GGCGGAGA | 0.0701
GTCTAAGA | 0.00684
GTAGGTTA | 0.0409
CTGGGTTC | 0.0965
AGGAGACA | 0.058
GTAAGAGA | -0.242
ACCTTTAT | -0.21
GCGTACCC | -0.107
CAATTCGC | 0.00462
CTCTAGCC | -0.167
ATCCAGGC | 0.0317
GGAAGCCC | -0.111
CGCGTTGA | 0.0186

Sequence | PBM E-score
CCGAAGAC | 0.0787
CGATATAC | 0.0742
GGTCCCTA | -0.0992
ACCGGAGA | 0.26
GCCCTCAA | -0.378
CTGTCGTA | -0.11
CTCGCCGC | 0.0777
CGTAGAGA | -0.127
AACCCGAG | -0.0167
AAAAAGAT | -0.155
CTCCCCGC | 0.325
AGGAAGTA | -0.051
AACATGCG | 0.105
CCTAACGA | -0.106
GTTCCGTA | 0.0278
ACTAGAAG | -0.225
AGGATGCG | -0.0107
CGGCTAAA | 0.0957
GACGCGTC | -0.146
AAACACTA | 0.0776
GTATACCA | 0.195
AAAAGGGA | -0.186
ACGCATCA | 0.11
CAGTTGAA | -0.098
ACTGTAAC | 0.107

Sequence | PBM E-score
AAGTAGCG | -0.207
CGGTCAAG | -0.154
GGCCCCGA | -0.136
GAACCAGA | -0.219
AGATAGAG | -0.0614
CAAGTTCC | -0.216
TGTTTGAA | -0.0523
AGAATTCG | -0.0154
GGGGGTCA | -0.104
ACGTGGTG | -0.0713
AGTTTTAC | -0.0563
CTTGACCA | -0.0241
CGCGTTGC | 0.00751
ATGGCACC | -0.0976
CGGGTGCC | -0.154
GTCCAAAC | -0.0771
AACAGAGG | -0.0546
ACTCACAC | 0.39
ATAAAGCG | -0.091
AGTTCGCG | 0.105
AAGCAACA | 0.0226
CAGGGTGC | -0.0301
CCGTCCGC | -0.151
GATGAGAA | -0.147
GTACCATA | 0.0957

Sequence | PBM E-score
AGAGGTTG | -0.0584
AAATAGAC | -0.0687
CGTACGTC | -0.193
CCCCGAGG | -0.0327
CGGTTAGA | -0.0685
AACGCCCG | -0.132
CATGAAGC | -0.0411
ACGTTCTG | 0.0673
ACATTGCA | 0.138
ATCCGCAT | 0.152
CTAGAACC | -0.117
GGGCCGAA | -0.0658
AAACTTGT | -0.0432
CGATCTCA | -0.00966
GGCTCCAC | -0.0342
GCGAGGAA | -0.0293
TATGTTGA | 0.0315
CCAGGACA | -0.0732
GACGTCCA | -0.174
GATGGTCC | -0.126
ACGCAATA | 0.118
GCTCGAAC | -0.0737
AGTCAAGG | 0.196
ACACTTAC | -0.0548
GGGTTCAC | 0.0756

Sequence | PBM E-score
ATGCTGTA | -0.145
GAGTATCC | 0.00445
CATAGACC | 0.0504
GGGATCTA | -0.00565
CTAACAGC | 0.0375
TCGTCCCA | -0.028
ATAGCCGA | -0.00472
AACGCAGT | -0.0303
ATTTGTAA | 0.189
CAGCCCTA | -0.0088
AATATATA | 0.157
ACCACCAA | -0.0777
ATGTGAAA | -0.115
AAGTGCTC | -0.163
CTCAGTGA | 0.111
GCTGTAGA | -0.128
ACAATTCT | -0.00366
ATGATCAG | 0.0756
GAGTATCA | 0.0571
TCGCATCA | 0.0056
CAGTAGTA | 0.161
AAAACCGT | -0.213
AGCTTCCT | -0.227
AATCGGAA | 0.0205
GGGGAGGA | 0.099

Sequence | PBM E-score
CTTCTACA | -0.176
CGCCAACA | 0.00672
CTTGTAAA | -0.0609
GCAGGGAA | 0.0347
AGGACCCG | -0.0953
ATTTCGTG | -0.0116
GAACCTTA | 0.0824
AGTAATGG | 0.193
ATGGTTGG | -0.0568
AGGAACGG | -0.0244
CTTAAAGA | -0.235
CATAACAG | -0.158
GCCCACCA | -0.125
CCCAAGCG | 0.0169
AACTTGTA | -0.249
ATTAACAC | 0.241
CTTTGGTA | -0.231
ACCATAAA | 0.138
CCCAATAC | 0.0511
ATTTACCC | 0.024
GGAGTGTA | 0.0149
GAGTGTCA | 0.158

— the supplement of paper PMC3334620
